# Assay results reported in article PMC4336329 (PLoS ONE, 2015).
# Hit rate of the full screen: of about 310,000 compounds, about 2,200 (0.71%) showed an effect of 50% or more. Effects have a minus sign here. Some of the results follow.
# Molecular target: human ether-à-go-go-related gene (hERG) potassium channel (human, UniProt Q12809)
# Test: primary screen, population patch clamp on CHO cells stably expressing hERG
# human ether-à-go-go-related gene (hERG) potassium channel, sequence (Q12809 whole entry, looked up): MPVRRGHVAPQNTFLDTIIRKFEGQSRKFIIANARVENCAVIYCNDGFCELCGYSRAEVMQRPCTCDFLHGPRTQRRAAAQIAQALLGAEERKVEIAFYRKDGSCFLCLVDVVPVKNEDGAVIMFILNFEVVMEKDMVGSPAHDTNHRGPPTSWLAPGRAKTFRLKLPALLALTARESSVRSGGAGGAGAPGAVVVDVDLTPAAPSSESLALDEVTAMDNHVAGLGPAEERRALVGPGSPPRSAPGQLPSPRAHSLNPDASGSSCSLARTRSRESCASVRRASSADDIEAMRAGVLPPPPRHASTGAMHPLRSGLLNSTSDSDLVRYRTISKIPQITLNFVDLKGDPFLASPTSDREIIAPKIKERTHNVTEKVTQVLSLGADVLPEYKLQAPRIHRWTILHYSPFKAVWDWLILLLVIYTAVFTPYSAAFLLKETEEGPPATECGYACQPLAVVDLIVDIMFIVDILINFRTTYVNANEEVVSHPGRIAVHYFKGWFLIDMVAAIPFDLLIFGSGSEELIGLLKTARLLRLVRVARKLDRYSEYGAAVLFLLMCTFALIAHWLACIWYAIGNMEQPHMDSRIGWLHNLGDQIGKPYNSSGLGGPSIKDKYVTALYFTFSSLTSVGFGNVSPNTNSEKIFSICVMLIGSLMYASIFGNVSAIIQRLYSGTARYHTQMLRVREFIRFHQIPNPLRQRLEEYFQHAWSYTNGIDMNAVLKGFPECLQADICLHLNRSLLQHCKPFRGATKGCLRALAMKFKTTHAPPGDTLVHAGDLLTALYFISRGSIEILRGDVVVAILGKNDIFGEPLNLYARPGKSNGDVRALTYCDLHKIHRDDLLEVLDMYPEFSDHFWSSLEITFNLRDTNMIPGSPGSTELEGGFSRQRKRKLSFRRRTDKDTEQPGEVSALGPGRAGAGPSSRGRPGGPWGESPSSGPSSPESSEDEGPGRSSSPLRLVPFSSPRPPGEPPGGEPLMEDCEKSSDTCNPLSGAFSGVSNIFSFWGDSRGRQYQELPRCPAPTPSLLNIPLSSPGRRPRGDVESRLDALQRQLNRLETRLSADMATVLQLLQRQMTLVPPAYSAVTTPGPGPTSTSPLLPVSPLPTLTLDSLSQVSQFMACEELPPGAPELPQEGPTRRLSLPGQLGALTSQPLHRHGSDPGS
row,SMILES,"hERG current change (%, negative = inhibition) at 1uM [%]"
1,COc1ccc(OCC(=O)Nc2cccc(C(=O)Nc3ccccc3C(=O)O)c2)cc1,5.99
2,Cc1ccccc1NC(=O)Cc1nc(COC(=O)c2ccc(Cl)nc2)cs1,10.4
3,Clc1ccc2nc(-c3ccccn3)c(Nc3ccc4c(c3)OCO4)n2c1,4.05
4,COc1ccc(NC(=O)c2sc3ncnc(N4CCN(c5ccccn5)CC4)c3c2C)cc1Cl,13.6
5,Cc1nc(C)c(-c2nnc(-c3cccc(S(=O)(=O)N(C)C)c3)o2)cc1C(=O)NN,13.5
6,CCOC(=O)c1sc(NC(=O)OC)c(C(=O)OC)c1C,17.2
7,Cc1ccc2cc(C)c(SCC(=O)NCc3ccco3)nc2c1,6.98
8,CC(C)n1c(=O)c(C=Nc2ccc(F)cc2)c(O)n(Cc2ccco2)c1=O,8.4
9,CC1Oc2ccccc2OC1C(=O)Nc1nccs1 (stereo not drawn),17
10,COc1ccc(Cl)cc1NC(=O)C(C)Sc1nnc(C2CC2)n1C1CC1 (stereo not drawn),-10.5
11,Cc1nn(CC(=O)c2cccc(Cl)c2)c(C)c1[N+](=O)[O-],6.41
12,CC(C(=O)Nc1ccc(Cl)cc1)c1ncc(C(F)(F)F)cc1Cl (stereo not drawn),3.36
13,Cc1cc2cc(CNC(=O)CCC(=O)O)ccc2n1C,13.2
14,Cc1ccc(NC(=O)C2C3CCC(O3)C2C(=O)O)cc1Cl (stereo not drawn),15.2
15,COC(=O)[C@H](CC(C)C)NC(=O)c1cc2c(cn1)[nH]c1ccccc12,8.82
16,COC(=O)COc1cc(Br)c(/C=C2/SC(=O)N(CC(=O)N3CCCC3)C2=O)cc1OC,6.42
17,CCc1ccc(OCCNC(=O)c2cccs2)cc1,-1.84
18,O=c1cc(-c2ccccc2)nc2nc(COc3ccccc3)[nH]n12,0.79
19,COC(=O)C1=C(c2cc3ccccc3s2)C[C@@H]2CC[C@H]1N2C(=O)NCCS(C)=O (stereo partly drawn),10.8
20,O=C(CNC(=O)c1cccs1)NCC(=O)OCc1ccc(Cl)cc1,-4.11
21,C=C(C)COc1ccc(-c2n[nH]c(C)c2-c2ccc(OC)c(OC)c2)c(O)c1,16.4
22,Cc1ccc(S(=O)CCNC(=O)Cc2ccccc2)cc1 (stereo not drawn),18.1
23,CC1CCN(C(=O)CCc2nnc3ccc(N4CCC5(CC4)OCCO5)nn23)CC1,14.4

row,SMILES,"hERG current change (%, negative = inhibition) at 1uM [%]"
1,NC(=O)C1CCN(C(=O)c2ccc(OCC(=O)Nc3cccc(C(F)(F)F)c3)cc2)CC1,4.73
2,COc1ccc(-c2nnc(SCC(=O)c3cccs3)o2)cc1,-5.02
3,CC1(c2nnc(-c3ccccc3)o2)CC(c2c(Cl)cccc2Cl)=NO1 (stereo not drawn),18.7
4,O=C(OCC(=O)c1c[nH]c2ccccc12)c1ccco1,12.3
5,Cc1cccc(NC(=O)CCC(=O)N/N=C/c2cc([N+](=O)[O-])ccc2O)c1,10.4
6,Cc1ccc(C(=O)N/C(=C\c2ccc(-c3cccc([N+](=O)[O-])c3)o2)C(=O)NCCCN2CCOCC2)cc1,-74.7
7,COc1ccc(-n2nc(C(=O)NCC(=O)NCC3COc4ccccc4O3)c3ccccc3c2=O)cc1 (stereo not drawn),9.18
8,COc1ccc(N(C2CSC2)S(=O)(=O)c2ccccc2)cc1,11.6
9,Cc1ccc(OCC(=O)NCCNC(=O)c2ccncc2)cc1C,13.3
10,CCCc1cc(=O)oc2cc(C)cc(OCC(=O)N3CCC(C(N)=O)CC3)c12,-1.68
11,COCCN(CCOC)c1cc(C)c(C#N)c2nc3ccccc3n12,-1.57
12,CC(C)CCN1C(=O)c2ccc(C(=O)Nc3c[nH]c(=O)[nH]c3=O)cc2C1=O,15.6
13,Cn1c(SCc2ccc(Br)cc2)nnc1-c1ccncc1,-3.81
14,C/C(=N\Nc1ccc(C(=O)O)cc1)c1ccc(S(=O)(=O)NCc2ccco2)cc1,7.08
15,CN(C)CCOC(=O)C12CC3(C)CC(C)(CC(C)(C3)C1)C2.Cl,4.49
16,Cc1ccc2c(c1)cc(C(=O)N[C@@H](Cc1ccccc1)C(=O)O)n2C,10.4
17,Clc1ccc(-n2cc(COCc3ccccc3)nn2)cc1,-9.69
18,Clc1ccc(C(c2ccccc2Cl)C(Cl)Cl)cc1 (stereo not drawn),10.5
19,Cn1c(=O)c(Cc2ccccc2)c(O)c2ccccc21,6.05
20,CC(C)OC(=O)/C(=C\c1cccnc1)NC(=O)c1ccccc1,8.3
21,Cc1ccc(C(=O)NCc2cccnc2)cc1S(=O)(=O)Nc1ccccc1,10.4
22,Cc1ccc(C)c(-c2ccc(=O)n(Cc3c(F)cccc3Cl)n2)c1,29.7
